# From PMC4336329 (PLoS ONE, 2015)
# Screen size: about 310,000 compounds; about 2,200 (0.71%) showed an effect of 50% or more. Effects have a minus sign here. The list shows a part of the results.
# Molecular target: human ether-à-go-go-related gene (hERG) potassium channel (human, UniProt Q12809)
# Assay: primary screen, population patch clamp on CHO cells stably expressing hERG
# human ether-à-go-go-related gene (hERG) potassium channel, sequence (Q12809 whole entry, looked up): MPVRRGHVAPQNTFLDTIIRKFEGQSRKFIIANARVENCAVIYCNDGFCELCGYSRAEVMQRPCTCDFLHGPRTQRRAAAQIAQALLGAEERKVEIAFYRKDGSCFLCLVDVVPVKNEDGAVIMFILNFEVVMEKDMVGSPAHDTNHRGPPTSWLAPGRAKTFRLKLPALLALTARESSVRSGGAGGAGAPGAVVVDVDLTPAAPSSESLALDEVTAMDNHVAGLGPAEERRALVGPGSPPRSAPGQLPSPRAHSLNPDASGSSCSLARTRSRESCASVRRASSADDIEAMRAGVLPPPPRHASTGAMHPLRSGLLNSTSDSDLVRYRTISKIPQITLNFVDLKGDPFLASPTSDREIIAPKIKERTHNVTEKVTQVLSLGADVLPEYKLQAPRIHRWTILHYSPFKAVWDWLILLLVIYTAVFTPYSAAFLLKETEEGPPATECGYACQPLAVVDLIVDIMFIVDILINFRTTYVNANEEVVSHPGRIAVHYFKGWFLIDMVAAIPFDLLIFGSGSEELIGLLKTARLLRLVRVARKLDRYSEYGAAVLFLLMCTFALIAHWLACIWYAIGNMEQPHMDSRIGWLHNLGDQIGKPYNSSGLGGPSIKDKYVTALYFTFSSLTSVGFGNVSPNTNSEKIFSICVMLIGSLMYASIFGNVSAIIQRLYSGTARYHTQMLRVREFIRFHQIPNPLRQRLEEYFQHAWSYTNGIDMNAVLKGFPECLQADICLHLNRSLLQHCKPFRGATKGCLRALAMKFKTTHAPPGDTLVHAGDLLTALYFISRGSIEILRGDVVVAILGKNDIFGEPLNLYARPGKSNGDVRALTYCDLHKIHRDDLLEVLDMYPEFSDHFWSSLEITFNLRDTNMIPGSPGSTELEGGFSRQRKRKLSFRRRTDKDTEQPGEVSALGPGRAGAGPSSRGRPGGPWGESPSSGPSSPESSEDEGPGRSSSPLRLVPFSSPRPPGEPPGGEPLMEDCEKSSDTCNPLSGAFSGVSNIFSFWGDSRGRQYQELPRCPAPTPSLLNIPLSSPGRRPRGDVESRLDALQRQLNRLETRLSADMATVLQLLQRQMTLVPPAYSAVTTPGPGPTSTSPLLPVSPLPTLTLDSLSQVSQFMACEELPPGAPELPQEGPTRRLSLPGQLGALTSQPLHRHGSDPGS
row,SMILES,"hERG current change (%, negative = inhibition) at 1uM [%]"
1,CCOC(=O)c1cnc(-c2ccc(C(F)(F)F)cn2)[nH]c1=O,11.5
2,COc1ccc(N(C(=O)c2ccccc2OC)C2C=CS(=O)(=O)C2)c(OC)c1 (stereo not drawn),14.4
3,O=c1[nH]cnc(O)c1C(c1ccc(F)cc1)c1c(O)nc[nH]c1=O,17.9
4,O=C1CN(C(=O)COc2ccc(F)cc2Br)c2ccccc2N1,2.8
5,COc1ccc(-c2sc3ccc(OC)cc3c2C#CCCO)cc1,12.8
6,CN(C)S(=O)(=O)N1CCN(S(=O)(=O)c2ccc3ccccc3c2)CC1,21
7,CC(C)c1ccc(NC2CCCN(C(=O)c3ccncc3)C2)cc1 (stereo not drawn),10.7
8,Cc1cccc(C(=O)OCC(=O)Nc2c(C)n(C)n(-c3ccccc3)c2=O)c1,4.09
9,CCc1nc2ccc(C(=O)N3CCN(c4cccc(C(F)(F)F)c4)CC3)cc2nc1CC,-16.7
10,O=C1C(C=NCCCN2CCOCC2)=C(O)c2ccccc21,11
11,COc1ccc(C(=O)NCC(O)COc2ccc(C(C)(C)C)cc2)cc1[N+](=O)[O-] (stereo not drawn),10.8
12,Cc1c(C(=O)Oc2cc(N)n(S(C)(=O)=O)n2)cccc1[N+](=O)[O-],7.66
13,CCc1cc2ccc(OC)cc2nc1SCC(=O)NNC(C)=O,-1.32
14,CCCCCCc1cc2cc(-c3nnc(-c4ccccc4OC)o3)c(=O)oc2cc1O,2.36
15,COc1cc(/C=C/c2ccc3cccc(O)c3n2)cc(Br)c1OC,15.1
16,COc1ccccc1N1CC(C(=O)Nc2nc(C)cs2)CC1=O (stereo not drawn),-3.75
17,COc1ccc(N2CCN(CCCNC(=O)Nc3ccccc3)CC2)cc1,-50.5
18,CN(CC(=O)Nc1ccccc1Br)C(=O)c1cccnc1Nc1cccc(C(F)(F)F)c1,10.2
19,O=C(CSc1nnc2c(n1)[nH]c1ccc(F)cc12)NCc1ccc(F)cc1,7.43
20,CC(=O)Nc1ccc(NC(=O)Cn2c(=O)n(-c3ccc(F)cc3)c(=O)c3oc4ccccc4c32)cc1,12.4
21,O=C(NNC1=C(C(=O)C(F)(F)F)CCC1)c1cccc(Cl)c1,13.4
22,C=CCN1C(=NC(=O)CCCC(=O)O)SC2CS(=O)(=O)CC21 (stereo not drawn),10.8

row,SMILES,"hERG current change (%, negative = inhibition) at 1uM [%]"
1,CCCN1CCC(NC(=O)Cc2ccccc2OC)CC1,7.16
2,CSc1nc(C(C)C)ccc1CNC(=O)CC(C)c1ccccc1 (stereo not drawn),10.9
3,CCCCn1nc(C(=O)Nc2c(C)n(C)n(-c3ccccc3)c2=O)c2ccccc2c1=O,7.57
4,CC1=CC(C)(C)Nc2ccc(Cc3ccc4c(c3)C(C)=CC(C)(C)N4)cc21,14.3
5,O=C(Cn1c(=O)c2c(ncn2Cc2ccccc2)n(Cc2ccccc2)c1=O)NC1CC1,11.1
6,O=C(CN1CCN(c2ccc(Cl)cc2)CC1)NCc1ccccc1,-23.6
7,Cc1ccc(C)c(SCC(=O)Nc2cccnc2Cl)c1,3.02
8,COc1cc(/C=C/C(O)=C/C(=O)/C=C/c2ccc(O)cc2)ccc1O,14.5
9,O=C(CSc1nnc(SCc2ccccc2)s1)N/N=C/C=C\c1ccco1,15.9
10,O=C(CSc1nc2ccccc2s1)Nc1cc(S(=O)(=O)N2CCOCC2)ccc1Cl,7.53
11,Cc1ccc(C(=O)NCC(=O)NC2CCCC2)cc1,12.6
12,Cc1cccc(C(=O)NCCC(=O)NCc2ccccc2F)c1,5.88
13,O=C(Cn1c(=O)n(CCC(=O)N2CCCCC2)c(=O)c2sccc21)NCc1ccccc1,11.6
14,CCOc1ccc(CCNC(=O)CS(=O)Cc2nc(-c3ccccc3C)oc2C)cc1OCC (stereo not drawn),16.3
15,CCOc1cccc(-c2csc(C3COc4ccccc4O3)n2)c1.Cl (stereo not drawn),16.4
16,N#CCN1CCC/C1=C\[N+](=O)[O-],22.1
17,Cn1c(NC(=O)c2ccccc2)nc2ccccc21,14.4
18,CCC(C)NC(=O)CSc1n[nH]c(-c2cc(Cl)ccc2OC)n1 (stereo not drawn),2.44
19,O=C(CN1C(=O)NC2(CCCC2)C1=O)Nc1cc(Cl)ccc1N1CCCCC1,8.98
20,Cc1cc(NC(=S)N(CCN2CCOCC2)Cc2ccccc2F)ccc1Cl,6.39
21,CCCC(C)NC(=O)Cc1ccc(Br)cc1 (stereo not drawn),13.6
22,Cc1ccc(C)c(-c2nnc(NC(=O)CCS(=O)(=O)c3ccccc3)o2)c1,-13.5

row,SMILES,"hERG current change (%, negative = inhibition) at 1uM [%]"
1,COCCn1c(SCC(=O)NC2CCCC2)nnc1-c1ccco1,15.1
2,Cc1ccoc1C(=O)Nc1ccc2ccccc2c1,12.5
3,O=C1/C(=C/c2cccnc2)N=C2CCCCCN12,2.46
4,CS(=O)(=O)c1ccc(Cl)c(NC(=O)COC(=O)CNC(=O)c2ccc(Br)o2)c1,8.67
5,S=C1NCCNC(=S)NCCOCCOCCN1,12.3
6,Cc1ccc(NC(=O)CNC(=O)c2cccs2)cc1S(=O)(=O)Nc1ccc(Cl)cc1,7.67
7,Cc1ccc(-n2ncc3c(N4CCC(C(N)=O)CC4)ncnc32)c(C)c1,-10.4
8,Cl.Clc1ccc(SCCOCCN2CCc3ccccc3C2)cc1,8.68
9,O=[N+]([O-])c1ccc(-[n+]2nc(-c3ccccc3)nn2-c2ccccc2)cc1.[Br-],16.9
10,O=C(NN1C(=O)CSC1=S)C(=O)NN1C(=O)CSC1=S,21.5
11,OC1(c2ccccn2)COc2ccccc2O1 (stereo not drawn),0.694
12,COc1ccc(CCN2CC(C(=O)NCCc3ccccc3C)CCC2=O)cc1 (stereo not drawn),5.05
13,CC1=CC(C)(C)N2C(=O)C3(N=C(N)NC(Nc4ccccc4)=N3)c3cc(C)cc1c32 (stereo not drawn),1.44
14,Br.Cc1cc(NS(=O)(=O)c2ccc(Nc3nc(-c4sc(NC(=O)c5ccccc5)nc4C)cs3)cc2)no1,-0.702
15,COc1ccccc1NS(=O)(=O)c1cccc(C(=O)NNC(=O)C(NC(N)=O)C(C)C)c1 (stereo not drawn),10.2
16,CCc1ccc(NC(=O)c2ccc(OC)c([N+](=O)[O-])c2)cc1,4.3
17,N#CC/C(N)=N/NC(=O)CCCNc1ncc(C(F)(F)F)cc1Cl,21.5
18,COc1ccc(NC(=O)CN2CCC3(O)CCCCC3C2c2cc(OC)ccc2OC)cc1 (stereo not drawn),0.354
19,CN1CCN(CCCNC(=O)Cn2ncc3c4ccccc4n(C)c3c2=O)CC1,12.3
20,O=C(CSc1nc(-c2ccco2)cc(C(F)(F)F)n1)NCC1CCCO1 (stereo not drawn),5.27
21,CCOC(=O)C1CCN(Cc2ccc(F)c(F)c2)CC1,15.2
22,Cc1ccc(/C=N/NC(=O)c2cc(C)oc2C)cc1,10.3

row,SMILES,"hERG current change (%, negative = inhibition) at 1uM [%]"
1,CC1CCN(C(=O)CSc2ccc(-c3cccc([N+](=O)[O-])c3)nn2)CC1,-36.7
2,COc1ccc(/C=C2\CCC/C(=C\C=N\N(C)C)C2=O)cc1,6.52
3,C#CCOc1c(/C=C\c2nc(O)c([N+](=O)[O-])c(=O)[nH]2)cc(Br)cc1OC,15.8
4,CC(C)OCCCNC(=O)c1ccc2c(c1)S(=O)(=O)c1ccccc1C2=O,3.4
5,O=C(c1ccc(=O)[nH]n1)N1CCN(S(=O)(=O)c2ccc3ccccc3c2)CC1,5.65
6,COC(=O)[C@@]12CCCCN1[C@H](c1ccc(-c3ccc(C(C)=O)cc3)c(OC)c1)[C@@H]1C(=O)N(C)C(=O)[C@@H]12.O=C(O)C(F)(F)F,15.8
7,COC(=O)c1[nH]c2ccc(C)cc2c1NC(=O)NC1CCCCC1,9.66
8,O=C(Cc1ccccc1)N1CCCC(c2nc(-c3cccs3)no2)C1 (stereo not drawn),3.04
9,COc1cccc(CNS(=O)(=O)c2c(C(=O)N3CCCCC3)c(C)n(C)c2C)c1,14.8
10,COc1cccc(NC(=O)CN(C)C(C)C(=O)Nc2ccc(C#N)cc2)c1 (stereo not drawn),-28.5
11,CCOC(=O)C1(Cc2ccccc2Cl)CCN(C(=O)c2cc(C)on2)CC1,7.84
12,C[N+]1(CCCCCCC(=O)/C=N/O)CCCCCC1.[I-],17.4
13,CN(C)c1ccc(-c2nnn(CC(=O)NCc3ccc4c(c3)OCO4)n2)cc1,7.31
14,COc1ccc(-n2cc(C(=O)O)c(=O)cc2C)cc1,8.32
15,CC(C)(C)c1ccc(NS(=O)(=O)c2ccc(N)cc2)cc1,12.3
16,O=C(c1ccccc1)N1CCN(c2ccc(N3CCOCC3)nn2)CC1,13.8
17,COc1ccc(/C=N/NC(=O)c2nn(-c3ccc(Cl)cc3)c(=O)c3c(N)scc23)cc1,2.77
18,Cc1cc(-c2onc(C)c2C(N)=O)no1,12.7
19,N#Cc1ccccc1Sc1ccccc1C(=O)OCC(N)=O,13.9
20,COc1ccc(Cn2ccnc2SCC(=O)Nc2ccccc2F)cc1,15.6
21,Cc1cc(OCc2cc(C(=O)NCCN3CCCCC3CO)no2)cc(C)c1Cl (stereo not drawn),-7.06
